Source: the RNAGym collection of RNA variant scans (doi:10.7554/elife.90254)
Read counts are not given, so values of variants with three or more changes are uncertain.

B1: LINE1-full (parent)
chain: UACGUAGGUGGUUUUCCCCUGAUAGUGCUAAGGGGGCCUGGAAGUUUGGACUGGGCAGAGCUCAACACAGCGUGGCAAAGUGGCUGUGGCUAGACUGCCUCUCUGGAUUCCUCGUCACUCAGCAGGGCAUCUCUGAGAGAAAUGCC

Variants of: B1
Test: self-cleavage, relative activity (ratio to wild type); higher = more cleavage; in vitro, sequencing; the parent is a self-cleaving ribozyme

Row | Variant | self-cleavage
1 | U52C A77U U115C | 2.04
2 | U14A A43G A57C G125C | 0.08
3 | G35A U91C U100C A124G | 0.33
4 | U81C G114A U130A | 1.88
5 | G36A A57U A79G C133A A142G | 0.04
6 | G34C U130C A141G | 1.97
7 | U14A U112C U132C | 1.13
8 | U13C A42G G127A A141G | 1.84
9 | A42G U62C U100A | 0.07
10 | U15A A69U A129G A142G | 0.56
11 | A6C U45C U47C | 0.42
12 | U26C U39C A129G A141G | 0.59
13 | U13C A22U U47G A77C A79G | 1.23
14 | A22G G34A G40A U115C | 1.04
15 | U73C A78G U85A A107G A138U | 0
16 | A24G G27A C38U G126C | 1.06
17 | U1C A57G A142G | 0.51
18 | C37A U62A A78G A140G | 0.07
19 | A22U G60A A136U | 0.03
20 | G36C A64U A79U | 0.56
21 | A57G U119C A142G | 2.15
22 | A24U U46A A50G U119A A124U U134C | 1.19
23 | U96A U112A A129G | 0.06
24 | U39A A42U G44A U46C U87C A129G | 0.2

Row | Variant | self-cleavage
25 | A2U A22U G53A U62C A77U | 0.12
26 | A43G U102C G126A | 1.71
27 | A42U U46C U62C A79G A117U | 0.16
28 | U20A U26A A141G | 0.96
29 | A22G U73C U91C | 0.71
30 | U14C A65G A77U G86A G106A | 0.04
31 | U15A A78U U119A | 1.53
32 | A31U U47C U52C | 2.22
33 | C18A U85A G89A | 0.11
34 | U52C A69G A77G C103A A136U | 1.02
35 | A124G U132C A136U | 2.16
36 | U12A G35U C76U A92G U119C | 0.05
37 | A2G C37A A142G | 1.3
38 | U20C U45A A77U | 0.56
39 | A30G U52A C76U U102C | 1.19
40 | A65U G86A U109A U134C | 0.02
41 | U14C A77G A141G | 2.45
42 | G53U U112C U134C A142G | 1.06
43 | U13C U29C U47A U109A | 1.69
44 | A57U U91C A117U | 0.08
45 | U14C U45C C76U | 1.91
46 | U47C A67C U85C U87A U115A A138G | 0
47 | A57G C71A A92G G93U U104C A141G | 0
48 | U9C U26C U132C | 1.12

Row | Variant | self-cleavage
49 | U39A U45C C84U | 0.08
50 | C71U U85C U115A | 0.05
51 | G55U A94G A138G U143A | 0.1
52 | U13C U62A G106U A141G | 0.06
53 | U14C U20C A69G A77G | 0.61
54 | A22G U73A A79G C95U U104C A129G | 0.33
55 | U9A U13C A42G A78U A124U A142U | 1.19
56 | U26A U73A A124C | 1.27
57 | A2G U5A U87A G125A | 0.15
58 | A2G G7A C98U | 0.36
59 | A24G U81G U115C U143A | 2.12
60 | U13C A77G A94G | 0.37
61 | A64U A77U C99U C111U U119C A129G G144A | 0.22
62 | G8A U26C A42G U130A | 0.9
63 | U26C C76U U87C C99U A141G | 0.12
64 | A6G U87A U96C | 0.12
65 | U15C A30G U46A U108C | 1.61
66 | A30U A77G A117C | 0.4
67 | A57U U109C A117U | 0.15
68 | U14C G60A U73A | 0.08
69 | U9C C19U U52C U62C U134C | 0
70 | U14A A22G U73G | 0.74
71 | A78G U119C U134A | 1.01
72 | A79G U85A A94G | 0.27

Row | Variant | self-cleavage
73 | U13C U14C A65G | 0.14
74 | U9A G36A A94G | 0.05
75 | A31G A78G A121G | 0.51
76 | U15A U109C C113A | 1.25
77 | U26C U39C A77U U119C | 0.97
78 | U12C G48A A117G | 0.8
79 | U47C G54U U134C | 1.84
80 | A67G U130C G144A | 0.77
81 | A31U U45C U134C | 2
82 | A6U U134A A142U | 0.72
83 | U13C U52C G75A A107U A129G | 1.4
84 | C16U U62C U109C | 0.05
85 | U45G A64G A124G | 0.15
86 | A24G A57G A69U A142G | 0.3
87 | A6G A57G U73C A140U | 0.84
88 | U14A G36C U130A | 0.82
89 | A43G A117U A138G | 2.06
90 | U13C U20A U47A U132C C133U | 0.96
91 | U9C A79U U119A A140G | 0.37
92 | U13C G32U A65U U134G | 0.15
93 | U12G G53A U102A G122A | 1.62
94 | U14G A50G U52C G82A U130G | 1.44
95 | G75A A138G U143A | 1.47
96 | A6G U14C A42G | 0.77

Row | Variant | self-cleavage
97 | U13C U46C A59G | 0.09
98 | U12G U39C U109C C128U | 1.28
99 | G27C U109C C110U | 1.43
100 | U26A U87C U104C U112A | 0
101 | U9A U13C U96C U130A | 0.14
102 | G35A A50G U112A | 0.71
103 | U96C U102C U143C | 0.09
104 | U14C U29C U100A | 1.58
105 | G60A C113U A136U | 0.03
106 | A67G U112C A136G | 0
107 | A6G U46C A69G G135A | 0.07
108 | A2G A50U A79G A121U | 0.69
109 | U1C C3U G54A U143C | 0.49
110 | G33A U47C U134C | 1.09
111 | A43G U62C U81A A142G | 0.21
112 | U12C C76U U112C | 1.74
113 | A6U A42G U62C A64U | 0.15
114 | U45C U52A U115C | 2
115 | A22G U62C A64U A136G | 0.13
116 | A43G C76U U134C | 2.42
117 | G44A A64G U115C | 0
118 | A2U A79U A124G | 0.38
119 | U29C G35A A138U | 1.35
120 | U14C U29A A107U | 0.55

Row | Variant | self-cleavage
121 | G35A A42G A129U | 1.2
122 | U12C U85C A140G | 0
123 | U1C C90U A92U | 0.07
124 | A43G A57G U62C A64U A107G A136G | 0
125 | U9A U73C U87C | 0
126 | G21A A65G C68A U96C U134C | 0.05
127 | A6G A31G U96C U102C A142U | 0
128 | G11A U26C U39A | 0.58
129 | U12C G34A A65G U109C | 0
130 | G41U U45C A64U G83A U130C | 0.1
131 | U13C U52C A57G U62C G106C | 0
132 | A50G A77G U96A | 0
133 | U26C A57G U119C | 0.97
134 | G72A U91C A92U A107U | 0.33
135 | G53A A65U A121G | 0.13
136 | U9A U14A U26C A121G A136G | 0
137 | C63A U87A U134A | 0.03
138 | U45G A117G A138U | 1.45
139 | U14C A64U U104C U109A | 0.56
140 | A24G U47A U102A A124G | 1.53
141 | G36A C51U A65C G74U A78G G93A A141G | 0.02
142 | C19A A31U U115A | 0.93
143 | G4A U87A U115C C123U | 0.07
144 | A42G U45A A65U U81C | 0.29

Row | Variant | self-cleavage
145 | U39A A57U U96A A140G | 0.51
146 | U52C G80A U96C U115C | 0.11
147 | U23C U26C C28A | 1.75
148 | U20C A59G A136G | 0.22
149 | U20C A77U A121U | 1.91
150 | G34U C38A A77G A138G | 1.7
151 | A2G U45C A77U A142G | 1.12
152 | G8U U20A A31U U62A A65G U81A A107G | 0.17
153 | U5C U20A U46A | 1.67
154 | U1A U9C U45C A79G U130C | 0
155 | A65U U73A U87C A117U U132C A136U | 0
156 | C128U G137A A141U | 1.66
157 | G25A U119C A138C | 1.09
158 | U20A U81A A94U | 0.52
159 | C38U U45C C103A | 1.41
160 | A6G C17U A78G U130C | 1.67
161 | A22G A78U U130A | 2.58
162 | A77G C84U G127U | 0.2
163 | U12C U108C G114A | 2.3
164 | G34U U112C U115C A124U | 1.13
165 | U46G U62C A69U A77G | 0.04
166 | G4C U47C G60U U81C | 0.22
167 | A42U A117G C146U | 1.78
